From PubChem BioAssay AID485294 (National Center for Advancing Translational Sciences (NCATS), 2010)
Out of some 370,000 compounds screened, about 150 (0.041%) were called active. This list was built around the results that the source calls inconclusive (neither active nor inactive); the mix of calls is not that of the screen. Calls come from the whole dose curve; as a rule, active = well fitted inhibition curve with a large enough effect; inconclusive = small, poorly fitted or top-dose-only effect; inactive = flat fitted curve, though single readings scatter. No potency is given beside an inconclusive call; the fits are too rough.

target: Beta-lactamase (Escherichia coli (strain K12)) (UniProt P00811); assay: qHTS Inhibitors of AmpC Beta-Lactamase (assay with detergent); conditions: AmpC hydrolysis of nitrocefin, absorbance 480 nm, 0.01% Triton; series mostly up to 114 µM; note: nearly all actives have a fitted effect of over 25% in size
Method in brief: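 AmpC (5.3 nM in the dispensed reagent) in 20 mM phosphate pH 7.0 with 0.01% (detergent screen) or 0.0001% Triton X-100 was preincubated with compounds for 15 min at room temperature. Nitrocefin was then added from an 800 uM solution, and hydrolysis was followed at 480 nm.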
Potency is the fitted concentration of half-maximal effect; tags give direction and shape of the fitted curve.

Sequence of UniProt P00811 (P00811 whole entry, looked up): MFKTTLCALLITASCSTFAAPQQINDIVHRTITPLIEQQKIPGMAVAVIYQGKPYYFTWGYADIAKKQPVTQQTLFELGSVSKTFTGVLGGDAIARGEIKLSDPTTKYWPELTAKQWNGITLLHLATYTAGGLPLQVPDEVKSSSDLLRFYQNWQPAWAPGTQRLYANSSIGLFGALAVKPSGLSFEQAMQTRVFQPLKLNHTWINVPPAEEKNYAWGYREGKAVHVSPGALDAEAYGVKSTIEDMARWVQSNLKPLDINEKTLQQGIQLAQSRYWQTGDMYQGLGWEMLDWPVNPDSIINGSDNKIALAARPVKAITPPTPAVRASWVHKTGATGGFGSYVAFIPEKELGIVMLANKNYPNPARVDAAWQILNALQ

Compound	Potency
O=C(Nc1cccc(O)c1)c1cc(-c2ccc3c(c2)OCO3)on1	inactive
O=C(CS(=O)(=O)Cc1ccccc1)Nc1nnc(C(F)(F)F)s1	inconclusive [inhibitor, full curve, poor fit]
CCCC(=O)Nc1ccc(NC(=O)CCc2ccccc2)cn1	inconclusive [inhibitor, full curve, poor fit]
Cc1ccc(CC2CC(=O)N(CCc3ccc4c(c3)OCO4)C2=O)cc1 (centres undefined)	inconclusive [inhibitor, partial curve, poor fit]
COc1ccc(Cc2nnc(SCC(=O)NC3CCCC3)o2)cc1	inconclusive [inhibitor, single point]
O=C(NC1CCCCCC1)C1c2ccccc2C(=O)N1Cc1cccnc1 (centres undefined)	inconclusive [inhibitor, partial curve]
CN1CCN(c2nc3ccccn3c(=O)c2C=O)CC1	inconclusive [inhibitor, partial curve, poor fit]
Nc1ccc(C2=Nc3cccc4cccc(c34)N2)cc1	inactive
CCOC(=O)C1CCCN(Cc2ccccc2OCC)C1 (centres undefined)	inconclusive [inhibitor, full curve]
O=C(c1cnc2sccn2c1=O)N1CCCc2ccccc21	inconclusive [inhibitor, full curve, poor fit]
CCS(=O)(=O)N1CCc2cc(C(=O)NCc3ccc(Cl)cc3)ccc21	inactive
O=C(NCc1cccnc1)C1CC(=O)N(c2ccc(Cl)cc2)C1 (centres undefined)	inconclusive [inhibitor, partial curve]
CCC(C)(C)NC(=O)CN(C(=O)CCC(=O)Nc1nccs1)c1ccc2c(c1)OCCO2	inactive
Cc1cccc(C(c2sc3nc(-c4ccco4)nn3c2O)N2CCN(Cc3ccccc3)CC2)c1 (centres undefined)	inactive
COc1ccccc1C(=O)N=Nc1c(O)[nH]c2ccc([N+](=O)[O-])cc12	inconclusive [inhibitor, full curve]
COc1cccc(NC(=O)c2ccc3c(c2)C(=O)N(CC2CCCO2)C3=O)c1 (centres undefined)	inconclusive [inhibitor, full curve, poor fit]
COc1cc(C2CC(=O)c3c([nH]c(C(=O)OCc4ccc(C)cc4)c3C)C2)cc(OC)c1OC (centres undefined)	inactive
O=C1c2ccccc2C(=O)N1CC(O)CN1CCOCC1 (centres undefined)	inconclusive [inhibitor, full curve, poor fit]
CCOC(=O)/C(=N\Nc1ncnc2ccccc12)c1ccc(C)cc1	inactive
COc1ccc(/C=C/C(=O)NCc2cccnc2)cc1	inactive
Cc1cc(C)nc(Nc2ccc(N3CCCC3)cc2)n1	inconclusive [inhibitor, full curve, poor fit]
COc1ccc(NC(=O)C2CCN(C(=O)c3ccccc3)CC2)cc1OC	inconclusive [inhibitor, single point]

Compound	Potency
O=C(O)c1cccc(S(=O)(=O)N2CC=C(c3ccccc3)CC2)c1	inconclusive [inhibitor, full curve, poor fit]
COc1ccc(S(=O)(=O)N(Cc2ccccc2)c2ccccc2C(=O)Nc2ccccc2C(=O)NCc2ccco2)cc1	inconclusive [inhibitor, single point]
O=C(COc1ccccc1Cl)NNC(=O)C1CCCO1 (centres undefined)	inconclusive [inhibitor, full curve]
N=c1sccn1CC(=O)Nc1cccc2ccccc12	inconclusive [inhibitor, full curve, poor fit]
N=C1C(c2nc3ccccc3c(=O)[nH]2)=C(O)CN1CCc1ccccc1	inconclusive [inhibitor, full curve, poor fit]
CCS(=O)(=O)c1ccc(O)c(NC(=O)c2cc(OC)c(OC)c(OC)c2)c1	inconclusive [inhibitor, full curve]
CCOC(=O)C1CCCN(C(=O)Cn2nc(Cc3cccnc3)c3ccccc3c2=O)C1 (centres undefined)	inconclusive [inhibitor, full curve]
CCOc1ccc2nc(NC(=O)CSc3nc4cccnc4n3C)sc2c1	inactive
O=C(N/N=C/C=C\c1ccccc1[N+](=O)[O-])c1cc(-c2ccccc2)nc2ccccc12	inactive
Cc1ccc(-c2csc(N(CCc3ccccc3)C(=O)COc3ccccc3)n2)cc1	inconclusive [inhibitor, full curve, poor fit]
COc1cccc(CNC(=O)CSc2nc(=O)[nH]c3c2CCC3)c1	inactive
Cc1cc2cc(CNC(=O)CCC(=O)O)ccc2[nH]1	inconclusive [inhibitor, full curve, poor fit]
O=C(O)C1=C[C@@H](c2ccc(Br)cc2)C[C@@H](OCc2ccc(CO)cc2)O1	inactive
O=C(CN1CCc2ccccc21)NC(=O)NC1CCCCC1	inconclusive [inhibitor, single point]
CC(C)(C)c1cc(CCC(=O)NNC(=O)c2ccncc2)cc(C(C)(C)C)c1O	inconclusive [inhibitor, single point]
O=C(O)CC/C(=N/Nc1ncc(C(F)(F)F)cc1Cl)C(=O)O	inactive
O=C(Cn1cnc2c(cnn2-c2ccccc2)c1=O)NCc1ccccc1	inconclusive [inhibitor, full curve, poor fit]
COc1ccc(/C=N/NS(=O)(=O)c2ccc(F)cc2)cc1CN1CCSCC1	inconclusive [inhibitor, full curve, poor fit]
CCOc1ccc(N2C(=O)C3C(c4ccccc4)=NN(c4ccccc4)C3C2=O)cc1 (centres undefined)	inconclusive [inhibitor, full curve]
O=c1[nH]cc(C(F)(F)F)cc1NS(=O)(=O)c1ccccc1[N+](=O)[O-]	inconclusive [inhibitor, full curve]
CC(=O)Nc1ccc(S(=O)(=O)NCC(C)NS(=O)(=O)c2ccc(NC(C)=O)cc2)cc1 (centres undefined)	inconclusive [inhibitor, partial curve]
O=[N+]([O-])c1ccc(COn2nnc3ccccc32)cc1	inconclusive [inhibitor, partial curve, poor fit]

Compound	Potency
O=C(NCCOc1ccc(F)cc1)C1CCC(=O)N(CCc2ccccn2)C1 (centres undefined)	inconclusive [inhibitor, full curve, poor fit]
O=C(CN1C(=O)NC2(CCOc3ccccc32)C1=O)Nc1ccc2c(c1)OCCO2 (centres undefined)	inconclusive [inhibitor, full curve, poor fit]
CCOc1ccc2nc3c(cc2c1)CN(CCOC)C(=NCCOC)S3	inconclusive [inhibitor, full curve, poor fit]
CC(C)(C)OC(=O)N[C@@H](Cc1ccccc1)c1nnc(SCC(=O)O)o1	inconclusive [inhibitor, partial curve, poor fit]
COc1cccc(N2CCN(CC(=O)Nc3nc4c(s3)CC(C)CC4)CC2)c1 (centres undefined)	inconclusive [inhibitor, full curve, poor fit]
O=C(NC1CCSc2ccccc21)c1ccc(F)cc1 (centres undefined)	inconclusive [inhibitor, full curve]
Cc1ccsc1C(=O)N(c1nc2ccccc2s1)c1c(C)cccc1C	inconclusive [inhibitor, full curve, poor fit]
COc1cc(/C=C2\C(=O)N(c3ccc(NC(C)=O)cc3)N=C2c2ccccc2)ccc1O	inconclusive [inhibitor, single point]
CC(C)(CNC(=O)c1cccc(S(=O)(=O)Nc2ccc(Br)cc2)c1)N1CCOCC1	inconclusive [inhibitor, full curve, poor fit]
Cc1ccc(-c2noc(CN3CCOCC3)n2)cc1	inactive
Cc1csc(=O)n1CC(=O)OCC(=O)Nc1cc(S(=O)(=O)N2CCOCC2)ccc1Cl	inconclusive [inhibitor, full curve, poor fit]
Cc1ccc(C(=O)N/C(=C/c2ccccc2F)C(=O)NCCCn2ccnc2)cc1	inconclusive [inhibitor, full curve, poor fit]
COCCNC(=O)CSc1nc2ccc(N3CCOCC3)cc2c(=O)n1CCc1ccccc1	inconclusive [inhibitor, full curve, poor fit]
CCCCn1c(N)c(N(CCC(C)C)C(=O)COC(=O)c2sccc2C)c(=O)[nH]c1=O	inconclusive [inhibitor, partial curve, poor fit]
COCCCn1c(SC(C)C(=O)Nc2c(C)n(C)n(-c3ccccc3)c2=O)n[nH]c1=O (centres undefined)	inconclusive [inhibitor, full curve, poor fit]
CC1CCCN(C(=O)Nc2ccc(Br)cc2Cl)C1 (centres undefined)	inactive
O=C(Nc1cccc(Br)c1)Nc1nc2c(s1)CCCCCC2	inactive
CCOC(=O)c1sc(NC(=O)CSc2nnc(Cc3ccccc3)o2)c(C(=O)OCC)c1C	inconclusive [inhibitor, full curve, poor fit]
Cc1ccc(CN2CCC(n3nccc3NC(=O)CCOc3ccccc3)CC2)o1	inconclusive [inhibitor, full curve]
O=C(CC1(O)C(=O)N(CCc2ccccc2)c2ccccc21)c1ccco1 (centres undefined)	inconclusive [inhibitor, full curve, poor fit]
